From patent US20240209093A1 (I MAB BIOPHARMA, published 2024)

Target: T1, Tag1-CD47 (UniProt Q08722 in part)
T1 construct: Bought kit reagent
Assay: HTRF CD47/SIRPα binding assay (Cisbio): blocking of Tag2-SIRPa binding to Tag1-CD47; axis numbers -3 to 3 read as log10 of nM
From the text: Fluorescence data were read on a PerkinElmer Envision plate reader using laser as light source.

Tag1-CD47, sequence (Q08722 19-139 limits assumed): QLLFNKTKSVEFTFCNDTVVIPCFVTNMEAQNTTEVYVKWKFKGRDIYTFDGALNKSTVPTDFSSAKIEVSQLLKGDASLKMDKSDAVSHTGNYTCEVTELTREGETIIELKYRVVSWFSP

B1: 13H3-IgG1-93VH-6 (bispecific antibody)
heavy: EVQLVESGGGLVKPGGSLRLSCAASGLTFERAWMNWVRQAPGKGLEWVGRIKRKTDGETTDYAAPVKGRFSISRDDSKNTLYLQMNSLKTEDTAVYYCAGSNRAFDIWGQGTMVTVSS[human IgG1 constant region not printed]GGGGSGGGGSGGGGSGGGGSEVQLVESGGGLVQPGGSLRLSCAASGFTFTFRHYVMGWFRQAPGKEREFVAAISWSGSGSYYADSVKGRFTISRDNSKNTVYLQMNSLRAEDTAVYYCAADMTTRMSQASREYDYWGQGTLVTVSS
light: DIVMTQSPDSLAVSLGERATINCKSSQSVLYAGNNRNYLAWYQQKPGQPPKLLINQASTRASGVPDRFSGSGSGTEFTLIISSLQAEDVAIYYCQQYYTPPLAFGGGTKLEIKRTVAAPSVFIFPPSDEQLKSGTASVVCLLNNFYPREAKVQWKVDNALQSGNSQESVTEQDSKDSTYSLSSTLTLSKADYEKHKVYACEVTHQGLSSPVTKSFNRGEC
notes: Symmetric 'two to two' anti-CD47/PD-L1 bispecific; 93-VH-6 at the C-terminus of the heavy chain
IC50 (read off the curve): ~0.8 nM
